From PubChem BioAssay AID488969 (Vanderbilt High Throughput Screening Facility, 2010)
The full ranking holds about 110,000 compounds; the median of “z-score” is about -0.1, and the highest 2% start at about 2. Some of the results follow. Activity calls are given as the source filed them.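 How the source made its calls: active means z-score in the third read window above 3 or below -3; inactive means the rest.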

target: Metabotropic glutamate receptor 8 (Rattus norvegicus) (UniProt P70579); experiment: rat mGluR8 modulators via GIRK flux, primary screen, cell-based, thallium flux, HTS (AID 488969); conditions: HEK293 rat mGluR8, GIRK (G protein-gated inwardly rectifying potassium channel) thallium flux, FluoZin2; at 10 µM; stronger effect = higher value; submaximal glutamate (EC20) added with thallium
Chain of UniProt P70579 (P70579 whole entry, looked up): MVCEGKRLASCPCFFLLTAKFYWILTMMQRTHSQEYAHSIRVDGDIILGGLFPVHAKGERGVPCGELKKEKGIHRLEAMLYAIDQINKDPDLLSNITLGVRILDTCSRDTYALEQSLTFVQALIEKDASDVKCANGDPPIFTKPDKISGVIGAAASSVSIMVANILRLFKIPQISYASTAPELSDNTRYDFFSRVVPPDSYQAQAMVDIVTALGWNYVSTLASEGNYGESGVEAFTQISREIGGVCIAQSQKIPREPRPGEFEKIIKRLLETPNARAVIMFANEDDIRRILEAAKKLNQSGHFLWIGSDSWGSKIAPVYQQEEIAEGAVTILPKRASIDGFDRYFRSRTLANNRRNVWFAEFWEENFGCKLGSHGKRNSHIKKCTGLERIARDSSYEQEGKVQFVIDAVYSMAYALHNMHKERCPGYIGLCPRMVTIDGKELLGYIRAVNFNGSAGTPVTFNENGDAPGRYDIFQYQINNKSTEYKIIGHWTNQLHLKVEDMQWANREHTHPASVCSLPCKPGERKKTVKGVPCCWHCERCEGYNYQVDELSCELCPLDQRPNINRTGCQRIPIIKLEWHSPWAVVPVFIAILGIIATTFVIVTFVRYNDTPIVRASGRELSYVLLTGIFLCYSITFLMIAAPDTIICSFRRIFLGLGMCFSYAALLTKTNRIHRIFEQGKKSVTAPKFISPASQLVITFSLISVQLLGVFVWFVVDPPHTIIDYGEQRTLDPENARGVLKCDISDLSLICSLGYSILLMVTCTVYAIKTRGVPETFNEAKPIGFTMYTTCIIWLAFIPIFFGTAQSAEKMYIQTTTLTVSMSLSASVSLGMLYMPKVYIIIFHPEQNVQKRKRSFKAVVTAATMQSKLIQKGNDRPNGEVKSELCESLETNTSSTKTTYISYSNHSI

SMILES	z-score
Cc1c(Cl)c([N+](=O)[O-])nn1CCCC(=O)Nc1sc2c(c1C#N)CCC2	-0.0641
COc1ccc(CN(C)C2c3ccccc3-c3ccccc32)cc1	0.198
COc1ccc2c(c1)c(=O)oc1c(C)c3occ(C)c3cc12	0.586
CC(C)CN(Cc1c(O)ccc2c3c(c(=O)oc12)CCC3)CC(C)C	-0.353
CC(C)C(NS(=O)(=O)c1ccc2c(c1)oc(=O)n2C)C(=O)N1CCN(C2CCCCC2)CC1 (centres undefined)	1.75
N=c1sccn1CC(=O)Nc1ccc(S(=O)(=O)N2CCOCC2)cc1	2.19
COc1cccc(N(C(=O)c2ccn[nH]2)C2(C(=O)Nc3c(C)cccc3C)CCCCC2)c1	-0.274
COc1ccc(C(C)(C)C)cc1NC(=O)COC(=O)c1cnc(C)cn1	-0.58
CCOC(=O)C1=NNC(C(=O)c2ccc(C)cc2)C1c1ccc(C)cc1 (centres undefined)	-0.512
Cc1ccc(Cl)cc1N1CCN(CC(=O)Nc2ccc3[nH]c(=O)[nH]c3c2)CC1	-0.296
COc1cc(C(=O)Nc2ccc(S(=O)(=O)NC(C)(C)C)cc2)cc(OC)c1OC	-0.258
O=C(NC1CCCCC1)NC1CC2CCC(C1)N2Cc1nnnn1Cc1ccc2c(c1)OCO2 (centres undefined)	-0.0503
COc1ccccc1-n1cnc2cc(NC(C)=O)ccc21	-0.155
COc1ccc(C)cc1S(=O)(=O)N(CC(=O)O)c1ccc(C)cc1	0.667
N#Cc1cc2c(nc1SCC(=O)N1CCCCC1)CCCC2	0.0183
N#CCCn1c(=S)[nH]c2ccccc21	-0.232
O=C(NC1CCCCC1)N1CCN(C(=O)c2ccco2)CC1	0.0358
CS(=O)(=O)N(CC(=O)NCc1ccc2c(c1)OCO2)Cc1ccc(Cl)cc1	-0.196
Cc1ccccc1NC(=O)c1ccc(N/N=C/c2ccccc2O)c([N+](=O)[O-])c1	0.382
CN1C(=O)N(C)C2C1N(C)S(=O)(=O)N2C (centres undefined)	-0.0354
Cc1ccc2nc(Cl)c(C3CC(c4cccs4)=NN3S(C)(=O)=O)cc2c1 (centres undefined)	0.644
Cc1ccc(C(O)c2cccnc2)o1 (centres undefined)	0.0139
O=c1cc(O)c2c(=O)[nH]c(=O)n(-c3ccccc3)c2[nH]1	-0.269

SMILES	z-score
CS(=O)(=O)N(CC(=O)N1CCOCC1)c1ccc2c(c1)OCO2	-0.0813
COc1ccc(C(c2nnnn2CCc2ccccc2)N2CCN(C3CCCC3)CC2)cc1 (centres undefined)	0.507
CCOc1ccc(NC(=O)CSc2nnc(-c3ccccn3)n2C)cc1	-0.36
COc1ccc(CCNC(=O)C2CCN(S(C)(=O)=O)CC2)cc1OC	-0.183
COC(=O)c1[nH]c2ccccc2c1NS(=O)(=O)c1ccc(OC)cc1OC	0.156
CCn1c(=O)[nH]c(=O)c2c(N)c(C(=O)c3ccccc3OC)sc21	-0.704
COc1ccc(N2CCN(C(=O)CN3C(=O)C4CC=CCC4C3=O)CC2)cc1 (centres undefined)	0.292
O=C(N1CCCCCC1)N1CCN(S(=O)(=O)c2ccccc2)CC1	-0.149
Oc1ccc(Nc2nc(N3CCCC3)c3ccccc3n2)cc1	0.808
COc1ccc(C2CC(C(F)(F)F)n3nc(C(=O)O)c(Br)c3N2)cc1 (centres undefined)	0.00244
CN(C)S(=O)(=O)c1ccc2c(c1)c(=O)c(C(=O)N1CCN(c3ccccn3)CC1)cn2C	-0.186
Fc1ccccc1/C=C/c1ccc2ccccc2n1	-0.208
COc1cc(NC(=O)CSc2nccc(C)n2)c(C)cc1[N+](=O)[O-]	-2.71
Cc1ccc(-n2nc(-c3cccnc3)cc2C(=O)N2CCOCC2)c(C)c1	0.372
Cc1ccc2c(c1)-c1c(ssc1=S)C(C)(C)N2C(=O)CSc1nncn1C	0.393
CCS(=O)(=O)NCCc1csc(C)n1	-0.505
CCOC(=O)C1CCN(CC(=O)Nc2cc(C)nn2-c2nc3ccccc3s2)CC1	0.133
Clc1ccc(Cn2ncc3c(N4CCOCC4)ncnc32)cc1	-0.566
Cc1ccc(C(=O)Oc2cccc(NC(=O)c3cccs3)c2)cc1S(=O)(=O)N1CCOCC1	-0.722
CCOC(=O)CSc1ncc(OC)c(=O)[nH]1	0.073
COCCCNCCCOc1ccc(Cl)cc1Br	active: 3.75
Cc1[nH]c2ccccc2c1/C=C/c1cc[n+](C)cc1	-0.934
O=C(c1cccc([N+](=O)[O-])c1)n1nc(-c2ccccc2)nc1NCc1ccccc1	-0.377

SMILES	z-score
C=CCOc1ccc2c(c1)c(S(=O)(=O)c1ccc(C)cc1)cn2COC	-0.417
O=C(CSCc1ccco1)c1ccc(Cl)s1	-0.544
CCCOC(=O)c1ccc(NC(=O)COC)cc1	-0.449
CCOCC(=O)Nc1ccc2c(c1)OCCO2	0.168
COc1ccccc1-n1cnc2cc(C(=O)NC3CCCC3)ccc21	-0.0776
CCCCN1CNC(=S)N(Cc2ccccc2)C1	-0.0503
CC1CC(C)CN(c2nc(NCc3ccco3)nc(N)c2[N+](=O)[O-])C1 (centres undefined)	0.544
Cc1ccc(C2CC(c3ccco3)n3nc(N)nc3N2)cc1 (centres undefined)	0.519
CCc1ccc(Nc2nc(N)nc(CSc3nnnn3-c3ccccc3)n2)cc1	0.133
Cc1cccc(NC(=O)c2cc(S(=O)(=O)c3ccccc3)ccc2Cl)c1	0.286
CCOC(=O)C1=C(C)NC(=O)NC1c1ccc(N(CC)CC)cc1 (centres undefined)	-0.0787
Cc1ccc(-c2cc(C(=O)N/N=C/c3ccco3)n[nH]2)s1	-0.308
CCCCOC(=O)Nc1ccc(C)c(Cl)c1	-0.315
CC(C)CC1NC(=S)N(C2CCCCC2)C1=O (centres undefined)	-0.106
COc1cnc(-c2ccccn2)nc1Sc1ccc(Cl)cc1	-0.328
O=C(NCC(c1cccs1)N1CCOCC1)c1ccco1 (centres undefined)	0.17
COC(=O)C1=CN(C(C)C)C=C(C(=O)OC)C1c1cc(Br)c(OC)c(OC)c1	0.22
N/C(=N\OC(=O)N1CCOCC1)c1ccccc1	-0.264
COc1ccc(Br)cc1/C=N/n1c(C)nnc1C	-0.26
COc1ccc(C(=S)N2CCN(C)CC2)cc1	0.00843
CCC(=O)Nc1ccc(C(=O)Nc2cccc(OC)c2)cc1	-0.144
Cc1cc(NC(=O)CSc2nnc(Cc3ccccc3)n2C)no1	0.289
O=C1CCCN1CCCNCC(=O)N1c2ccccc2Sc2ccccc21	-0.364

SMILES	z-score
COCCCN1C(=O)c2ccc(C(=O)Nc3ccccc3OC)cc2C1=O	-0.422
CN(C1CCCCC1)S(=O)(=O)c1ccc(C(=O)N2CCN(c3nc4ccccc4s3)CC2)cc1	0.121
COc1cccc(OCc2cc(/C=N/NC(=O)c3ccn[nH]3)ccc2OC)c1	-0.544
OCc1ccccc1OCCOc1ccc(Cl)c2cccnc12	-0.438
COc1cc(C)c(Cl)cc1S(=O)(=O)n1cnc2ccccc21	1.19
CCN1/C(=C2\C(=O)N(C)C(=S)N2C)C=Cc2ccccc21	-0.543
CSC(=CC(=O)c1ccccc1)SC	-0.142
CC(c1ccccc1)C1CC(=O)N(Cc2ccco2)C1=O (centres undefined)	0.442
Cc1cc(NCCC(C)C)n2nc(C)c(-c3ccccc3)c2n1	-0.347
OC(CNCCc1ccc(Cl)cc1)COCc1ccco1 (centres undefined)	0.739
COc1ccc(C(=O)C[n+]2ccc(-c3nnc4n3CCC4)cc2)cc1	0.00267
O=C(c1ccccn1)N(CC1CCCO1)C1(C(=O)NC2CCCCC2)CCCCC1 (centres undefined)	-0.0644
O=C(CN1C(=O)CSC1=O)Nc1ccccc1F	0.225
COc1ccc(C)cc1NC(=O)C1CC(=O)OC12CCCCC2 (centres undefined)	-0.372
CCOC(=O)C1=C(c2ccccc2)NC(SCC(=O)Nc2ccc(C)cc2)=C(C#N)C1c1ccco1 (centres undefined)	-0.38
CCOC(=O)c1cccc(NC(=O)CSc2nnc(-c3ccncc3)n2CCCOC)c1	-2.15
O/N=C/c1cc(Br)ccc1OCc1ccc(F)cc1	-0.142
CCn1c(SCC(=O)Nc2ccc3c(c2)OCO3)nc2c1c(=O)n(C)c(=O)n2C	0.199
CC(=O)Nc1nc(CC(C)C)cc(-c2ccco2)c1C#N	0.491
C/C(=N/Oc1nc(C)cc(C)n1)c1ccc(Br)cc1	-0.206
CSCC[C@H](NC(=O)NCc1ccccc1F)C(=O)O	0.0918
CCC(C(=O)Nc1ccc(OC)c(Cl)c1)c1ccccc1 (centres undefined)	-0.116
CCOC(=O)C1CCN(c2c(Nc3ccc4c(c3)OCCO4)c(=O)c2=O)CC1	-0.277

SMILES	z-score
Cc1ccc(NC(=O)c2c(-c3ccccc3)noc2C)nc1	-0.306
O=C(CSc1nnc(CNC(=O)c2cccs2)o1)c1ccc(Cl)cc1	0.286
CCC(=O)Nc1ccccc1C(=O)OCC(=O)c1cccc2ccccc12	0.536
CNC(=S)NNC(=O)CCn1nc(C)c(Br)c1C	0.779
O=c1c2ccccc2nc(CSc2nnnn2-c2ccccc2)n1-c1cccc(C(F)(F)F)c1	-0.131
COc1ccc(CCNC(=O)c2nnc(Cc3ccc(Cl)cc3)o2)cc1OC	-0.408
Brc1cccc(-c2cnc3n2CCCCC3)c1	-0.682
Cc1ccc2c(c1)N=C(c1ccc(Cl)cc1)CO2	-0.217
COC(=O)c1c(NC(=O)C2CC=CCC2C(=O)O)sc(C(N)=O)c1C (centres undefined)	-0.534
O=C(CCN1CCCCCC1)Nc1cccc(F)c1	1.18
CCc1nc(SCc2cccnc2)c2c(=O)n(C)c(=O)n(C)c2n1	-0.548
COCCn1c(Sc2ccc(C)cc2)nc2c1c(=O)[nH]c(=O)n2C	0.355
CCOCc1cnc(C)nc1NCC(=O)c1c(C)[nH]c2ccccc12	0.343
Cc1nc(C)c(C(=O)NCc2ccc(Cl)cc2)o1	0.221
COc1ccccc1C1(O)CCN(C(=O)c2cccs2)CC1	0.76
Cc1cc(-c2csc(NC(=O)c3ccccc3C(F)(F)F)n2)c(C)n1Cc1ccccc1	-0.39
CC(=O)Nc1ccc(S(=O)(=O)N(C)CC(=O)OCC(=O)N2CCc3ccccc32)cc1	-0.155
Cc1noc(C)c1CSc1nnc(C)c(=O)[nH]1	-0.108
Cc1cccc(NC(=O)N(Cc2cc3cc(C)cc(C)c3[nH]c2=O)CC2COCCO2)c1 (centres undefined)	-0.561
Nc1nnc(-c2cn(-c3ccccc3)nc2-c2ccccc2)o1	0.187
CCCCCCCCOC(=O)/C=C/c1c(C)[nH]c(=O)[nH]c1=O	-0.128
N[C@@H](Cc1ccccc1)c1nnc2sc(SCc3ccccc3)nn12	-0.42
